# Measured values reported in PubChem BioAssay AID1768 (National Center for Advancing Translational Sciences (NCATS), 2009).
# Where “and” joins values, the source holds several entries; their conditions need not be identical. Equal values may be shown once. Screen size: about 270,000 compounds; about 620 (0.23%) were called active. Inconclusive means that the source gave no clear call. Such entries were picked first, then a sample of the others. The call rests on the fitted dose curve; in most records, active means well fitted inhibition curve with a large enough effect in the polarisation, with a control signal flat (not every such curve was filed as active); inconclusive means small, poorly fitted or top-dose-only effect, or effect the other way, or a change in a side signal; inactive means no such curve, though single readings can be large or run the other way; the % refers to the polarisation. Potencies beside an inconclusive call are fits to weak or partial responses and may not hold up. A note “side channel” means that the fit belongs to a control or component signal, not to the main read-out.
# Molecular target: Menin (Homo sapiens) (UniProt O00255)
# Test: qHTS Assay for Inhibitors Targeting the Menin-MLL Interaction in MLL Related Leukemias: Competition With Texas Red Labeled MLL-derived Mutant Peptide; on FP activity change, negative = inhibition: % of control where 0% means no effect
# Conditions: fluorescence polarization; FP activity change, negative = inhibition: at 61.6 µM (top of the series)
# Potency means the concentration at half of the fitted maximal effect; tags describe the fitted curve by direction and shape or compound fluorescence and quenching.
# Chain of UniProt O00255 (O00255 whole entry, looked up): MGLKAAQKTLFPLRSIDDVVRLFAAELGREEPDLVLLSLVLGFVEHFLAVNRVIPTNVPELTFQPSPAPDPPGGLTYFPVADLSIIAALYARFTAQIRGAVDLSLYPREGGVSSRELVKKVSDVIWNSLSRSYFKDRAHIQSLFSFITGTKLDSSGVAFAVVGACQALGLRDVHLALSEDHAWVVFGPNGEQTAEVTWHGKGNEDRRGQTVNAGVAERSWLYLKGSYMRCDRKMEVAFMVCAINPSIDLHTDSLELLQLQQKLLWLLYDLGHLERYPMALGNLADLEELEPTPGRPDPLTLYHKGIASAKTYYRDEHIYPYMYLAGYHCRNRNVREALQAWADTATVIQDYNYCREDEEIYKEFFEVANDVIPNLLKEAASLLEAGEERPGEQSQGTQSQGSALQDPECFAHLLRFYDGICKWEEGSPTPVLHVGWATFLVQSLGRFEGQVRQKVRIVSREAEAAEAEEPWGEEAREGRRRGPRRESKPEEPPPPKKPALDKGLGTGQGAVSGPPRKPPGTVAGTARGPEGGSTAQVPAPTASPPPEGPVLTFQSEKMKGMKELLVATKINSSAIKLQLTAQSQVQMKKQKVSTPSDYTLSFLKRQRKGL
SMILES,Potency,"FP activity change, negative = inhibition"
CCN(CC)CCCCN1c2ccccc2Oc2ccc(Cl)cc21,"inconclusive: 5.62 µM [inhibitor, full curve, poor fit]",
CCn1c(COc2ccc3c(c2)OCO3)nnc1SCC(=O)c1ccccc1,"inconclusive: 39.8 µM [inhibitor, single point]",
COc1ccccc1N1CCN(/N=C/c2cc(OC)c(O)c(OC)c2)CC1,,inactive: -19.9%
CC(/C=N/NC(=O)c1cccs1)=C\c1ccco1,"inconclusive: 15.8 µM [quencher, side channel, partial curve]",
N#C/C(=C\c1ccc(O)c(O)c1)C(=O)Nc1cccc2ncccc12,"inconclusive: 17.8 µM [quencher, side channel, partial curve]",
CCCC(=O)NC(c1ccccc1)c1c(O)ccc2ccccc12 (stereo not given),"inconclusive: 35.5 µM [quencher, side channel, single point]",
c1ccc(CNc2nc(-c3cccs3)nc3ccccc23)cc1,"inconclusive: 35.5 µM [quencher, side channel, partial curve]",
CC1CC=CC2C1C(=O)N(Cc1ccccc1)C2c1ccc(-c2ccoc2)cc1F (stereo not given),"inconclusive: 2.24 µM [fluorescent, side channel, full curve]",
C(=N\Nc1ccc2ccccc2n1)/c1ccc2c(c1)OCO2,"inconclusive: 28.2 µM [quencher, side channel, partial curve]",
O=C(Nc1sc2c(c1-c1nc3ccccc3[nH]1)CCCC2)C1CC1,"inconclusive: 12.6 µM [quencher, side channel, partial curve]",
O=P(COCCCCCOCP(=O)(c1ccccc1)c1ccccc1)(c1ccccc1)c1ccccc1,"inconclusive: 1.58 µM [fluorescent, side channel, full curve, poor fit]",
Cn1c(NCc2ccccc2)nc2c1c(=O)n(Cc1ccc(Br)cc1)c(=O)n2C,"inconclusive: 12.6 µM [quencher, side channel, partial curve]",
COc1ccc(C(C)C(=O)c2ccc(O)cc2O)cc1 (stereo not given),"inconclusive: 25.1 µM [quencher, side channel, partial curve]",
O=C(NC1CCCC1)c1sc(=S)n2c1[nH]c(=O)c1ccccc12,"inconclusive: 17.8 µM [quencher, side channel, partial curve]",
CCOc1ccc2nc(NCCNC(=O)C3CC3)c(C)cc2c1,,inactive: -0.734%
COCCSc1ccccc1C(=O)Nc1ccncc1,,inactive: -16%
COc1ccc(-n2c(=S)[nH]c3cc(C(=O)Nc4ccc(C)c(F)c4)ccc3c2=O)c(OC)c1,"inconclusive: 3.16 µM [quencher, side channel, partial curve]",
CN(C)c1ccc(N=Nc2ccc(S(=O)(=O)O)cc2)c2ccccc12,"inconclusive: 28.2 µM [quencher, single point]",
COCC(=O)Nc1cc(Sc2ccccc2)ccc1N=C(NC(=O)OC)NC(=O)OC,,inactive: 3.49%
COc1cccc(NC(=O)c2cc(-c3ccc(C)o3)nc3ccccc23)c1,"inconclusive: 28.2 µM [quencher, side channel, partial curve]",

SMILES,Potency,"FP activity change, negative = inhibition"
CC1(C)Oc2cc3c(cc2O1)OC(C)(C)O3,,inactive: 18.5% [at 11.7 µM]
CCOc1cc(/C=N/Nc2nc3ccccc3[nH]2)cc(Br)c1OCC(=O)N(C)C,"inconclusive: 28.2 µM [quencher, side channel, partial curve]",
CCOC(=O)Cc1nnc2c(Nc3ccc(Cl)cc3)nc3nonc3n12,"inconclusive: 31.6 µM [quencher, side channel, single point]",
CC1=C(C(=O)OCCNC(=O)c2ccccc2O)C(c2ccccc2[N+](=O)[O-])C(C(=O)OCC2CCCO2)=C(C)N1 (stereo not given),"inconclusive: 35.5 µM [quencher, side channel, single point]",
CCOc1cc(/C=C2/NC(=O)NC2=O)cc([N+](=O)[O-])c1O,"inconclusive: 22.4 µM [quencher, side channel, partial curve]",
CCOc1ccc(NC(=O)c2cccc3ccccc23)cc1,"inconclusive: 39.8 µM [inhibitor, single point]",
Cc1cc2c(s1)CCCCC(=O)N2,"inconclusive: 3.98 µM [inhibitor, partial curve]",
N#CCc1ccc(NC(=O)c2ccc(CN3CCc4ccccc4C3)cc2)cc1,"inconclusive: 39.8 µM [inhibitor, single point]",
Cc1ccc(NC(=S)N2CCN(S(=O)(=O)c3c(F)cccc3F)CC2)cc1C,,inactive: -4.37%
Cn1c(SCC(=O)C(C)(C)C)nnc1-c1ccncc1,,inactive: -7.35%
Fc1ccc([C@@H]2CCNC[C@H]2COc2ccc3c(c2)OCO3)cc1,"inconclusive: 11.2 µM [fluorescent, side channel, partial curve, poor fit] and inconclusive: 15.8 µM [fluorescent, side channel, partial curve]",
Cc1ccc2oc3nc(C)c(C(=O)O)cc3c(=O)c2c1,,inactive: 25%
CC(=O)Nc1ccc(NC(=O)c2ccc3c(c2)CCN3S(C)(=O)=O)cc1,"inconclusive: 35.5 µM [fluorescent, side channel, single point]",
COc1cccc(/C=C2\SC(=S)N(C(Cc3ccccc3)C(=O)O)C2=O)c1 (stereo not given),"inconclusive: 25.1 µM [quencher, side channel, single point]",
Cc1ccc(S(=O)(=O)Nc2c(C(=O)O)[nH]c3ccccc23)c(C)c1,"inconclusive: 17.8 µM [quencher, side channel, partial curve]",
Cc1cccc(C)c1OCC(=O)Nc1ccc(S(=O)(=O)Nc2ccccn2)cc1,,inactive: -12.9%
O=C(CN1CCc2ccccc21)NCc1ccc2c(c1)OCO2,"inconclusive: 20 µM [inhibitor, partial curve, poor fit]",
CCN1C(=O)C(O)(CC(=O)c2ccc(-n3cccc3)cc2)c2ccccc21 (stereo not given),,inactive: -0.461%
CC(C)(C=O)C1=CC(=O)c2ccccc2C1=O,"inconclusive: 14.1 µM [quencher, side channel, single point]",
Cc1ccc2nc(SCC(=O)O)nc(C)c2c1,"inconclusive: 3.55 µM [inhibitor, partial curve]",

SMILES,Potency,"FP activity change, negative = inhibition"
CCC(=O)Nc1nc(C)c(-c2csc(Nc3ccc(C(=O)O)cc3)n2)s1,"inconclusive: 22.4 µM [quencher, partial curve]",
Cn1c(=O)[nH]c(=O)c2c1nc(Br)n2Cc1ccccc1F,"inconclusive: 39.8 µM [inhibitor, single point]",
CN(C)C(=O)c1ccc(COc2ccccc2Br)o1,"inconclusive: 39.8 µM [inhibitor, single point]",
Cn1c2ccccc2n2c(=O)c(Cl)c(-c3ccccc3)c(C#N)c12,,inactive: 1.8%
Cc1ccc(CSc2nc3ccccc3c(=O)n2C)cc1,"inconclusive: 20 µM [fluorescent, side channel, single point]",
FC1(F)C(F)(F)C(F)(F)C2(F)C(F)(F)C(F)(F)C(F)(F)C(F)(F)C2(F)C1(F)F (stereo not given),,inactive: -3.57%
O=C(CCCN1C(=O)/C(=C/c2cccs2)SC1=S)Nc1ccc(O)cc1,"inconclusive: 28.2 µM [quencher, side channel, single point]",
O=C(Nc1ccc(Br)c2cccnc12)c1ccc(Cn2cc([N+](=O)[O-])cn2)o1,"inconclusive: 14.1 µM [quencher, side channel, partial curve]",
C=CCOC(=O)C1=C(C)NC(SCC)=C(C#N)C1c1ccc(Cl)cc1 (stereo not given),"inconclusive: 17.8 µM [quencher, side channel, partial curve]",
O=C(CSc1nnc(SCc2ccccc2Cl)s1)N/N=C/c1c[nH]c2ccccc12,"inconclusive: 10 µM [quencher, side channel, partial curve]",
COc1c(Cl)cc(Cl)cc1CNCc1ccccc1,"inconclusive: 20 µM [fluorescent, side channel, partial curve]",
CCOC(=O)C1CCCN(c2c(N3CCN(C4CCCCC4)CC3)c(=O)c2=O)C1 (stereo not given),"inconclusive: 28.2 µM [inhibitor, single point]",
O=C(Nc1ccccc1N1CCCCC1)c1ccc(Cl)cc1,"inconclusive: 20 µM [fluorescent, side channel, partial curve]",
Cc1ccc(C(=O)N/C(=C/c2ccco2)C(=O)N2CCCCC2)cc1,"inconclusive: 35.5 µM [inhibitor, single point]",
CS(=O)(=O)N1N=C(c2ccco2)CC1c1ccco1 (stereo not given),"inconclusive: 5.62 µM [fluorescent, side channel, full curve]",
c1cncc(CSc2nnc3ccc(-c4ccncc4)nn23)c1,"inconclusive: 35.5 µM [quencher, side channel, single point]",
CCOC(=O)C1CCCN(C2=C(NS(=O)(=O)c3ccc(Br)cc3)C(=O)c3ccccc3C2=O)C1 (stereo not given),"inconclusive: 22.4 µM [quencher, side channel, single point]",
Cc1ccc(OCCn2cc(/C=C3\C(=O)NN(c4ccccc4)C3=O)c3ccccc32)cc1,"inconclusive: 6.31 µM [quencher, side channel, partial curve]",
Cc1cccn2c(=O)c(C(=O)NC3CCCCC3)c(O)nc12,,inactive: -13.2%
Cc1oc2cc3oc(=O)c(CCC(=O)N4C[C@H]5C[C@@H](C4)c4cccc(=O)n4C5)c(C)c3cc2c1C,"inconclusive: 11.2 µM [fluorescent, side channel, partial curve]",
